Measurements from PubChem BioAssay AID1159614 (National Center for Advancing Translational Sciences (NCATS), 2016).
Out of some 45,000 compounds screened, about 65 (0.1%) were called active. Calls follow the shape of the dose curve; as a rule, active = well fitted activation curve with a large enough effect; inconclusive = small, poorly fitted or top-dose-only effect; inactive = no such curve, though single readings can be large or run the other way. This is one part of the list.
Also: 0% is about no effect; nearly all actives have a fitted effect of over 65% in size.

The compounds below were run against Galactocerebrosidase (Homo sapiens) (UniProt P54803) (assay: A Novel Cell-Based Assay to Identify Small Molecules for B -Galactocerebrosidase). Conditions: 145M-Twi-hGALC-G270D cells (Twitcher mouse brain line with human GALC G270D), HMU-beta-Gal fluorescence, 48 h; activation: at the top concentration.
Chain of UniProt P54803 (P54803 whole entry, looked up): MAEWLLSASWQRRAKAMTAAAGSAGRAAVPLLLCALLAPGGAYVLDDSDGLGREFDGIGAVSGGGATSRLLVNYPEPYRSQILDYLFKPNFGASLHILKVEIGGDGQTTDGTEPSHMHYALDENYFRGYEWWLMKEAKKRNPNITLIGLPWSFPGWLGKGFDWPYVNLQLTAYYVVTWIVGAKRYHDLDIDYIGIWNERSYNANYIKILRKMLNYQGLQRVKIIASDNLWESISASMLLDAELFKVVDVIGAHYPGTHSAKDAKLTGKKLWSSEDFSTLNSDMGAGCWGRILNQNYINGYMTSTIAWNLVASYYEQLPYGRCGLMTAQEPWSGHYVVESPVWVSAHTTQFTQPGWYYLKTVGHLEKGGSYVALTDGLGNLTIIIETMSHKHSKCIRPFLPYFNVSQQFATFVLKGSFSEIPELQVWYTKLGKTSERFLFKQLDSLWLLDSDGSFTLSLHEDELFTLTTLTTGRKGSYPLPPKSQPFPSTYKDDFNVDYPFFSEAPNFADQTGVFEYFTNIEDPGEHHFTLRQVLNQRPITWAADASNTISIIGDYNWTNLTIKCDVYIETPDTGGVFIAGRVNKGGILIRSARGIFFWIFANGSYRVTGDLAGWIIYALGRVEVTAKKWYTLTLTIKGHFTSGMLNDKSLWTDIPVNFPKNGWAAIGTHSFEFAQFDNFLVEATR
Excerpt: Lysosomal storage diseases (LSDs) are caused by genetic mutations in genes encoding proteins important for normal lysosomal function. Globoid cell leukodystrophy (GLD), mostly known as Krabbe disease, is a prototype of the neurological LSDs caused by deficiency of beta-galactocerebrosidase (GALC). In brain specimens of GLD patients, psychosine levels are substantially elevated. At elevated concentrations, psychosine becomes cytotoxic to neuronal cells, particularly to oligodendrocytes (OLG), neural cells responsible for myelin formation. Therefore, the biochemical disturbances in GLD are manifested by different degrees of brain demyelination resulting in a broad spectrum of neurological manifestations. Most of the FDA-approved therapies are based on enzyme replacement therapeutic (ERT) agents, which treat non-neurological symptoms of Gaucher disease, Fabry disease, few mucopolysaccharidoses and Pompe disease. Unfortunately, in GLD, a primarily neurological LSD, ERT agents, as large molecular weight molecules unable to cross the blood-brain barrier, which makes this an inefficacious therapeutic approach. In GLD, increasing the residual GALC activity just above the critical threshold (~10% of wild type enzymatic activity), the cytotoxic levels of psychosine will be reduced, avoiding the OLGs apoptosis and the subsequent demyelination process. This will translate in disease stabilization and amelioration of GLD patient symptoms.
A cell-based assay in 1,536-well plate format was developed to implement a quantitative high-throughput screening (qHTS) assay using GLD-disease relevant cells to identify small molecules that produce enhancements of the residual enzymatic activity levels of mutants GALC found and prevalent in GLD patients. Compounds that are active may therefore have some therapeutic application for GLD. After the treatment of live cells for a determined period, using a fluorescent GALC specific substrate, the mutant residual GALC activity is measured. This cell-based qTHS assay was used to screen part of the MLPCN library for small molecule able to increase the mutant GALC enzymatic activity. In this assay, increased fluorescent signal corresponds to enhanced levels of mutant GALC residual enzymatic activity. Activation is the desired outcome for this assay.
NIH Chemical Genomics Center [NCGC]
NIH Molecular Libraries Probe Centers Network [MLPCN]
Assay Submitter (PI): Gustavo Maegawa MD,PhD, University of Florida, Gainesville, FL
2)#Two cell lines were established for the assay: 145M-Twi-hGALC-G270D (brain-derived Twitcher cell line stably expressing human GALC-G270D) and 145M-Twi-hGALC-WT (same 145M-Twi stably expressing human GALC wild type). The Twitcher is the murine C57B/6 model for GLD with naturally occurring homozygous nonsense GALC mutation. The 145M-Twi cell line was established at Maegawa lab (Ribbens J et al 2014).
a.#Media: DMEM/F12 (1:1) with 10% fetal bovine-serum (FBS) with penicillin/streptomycin (PS-1X - 100 I.U./mL of penicillin+100 ug/mL of streptomycin).
b.#The 6-Hexadecanoylamino-4-methylumbelliferyl-b-D-galactoside (HMU-B-gal) substrate was prepared as per Wiederschain et al 1992. Using 20-mL borosilicate tubes, 2.20 mg of HMU-b-Gal was added in each tube to prepare substrate-film with a final air-nitrogen stream evaporation to remove all diluent solvents.
c.#The HMUb-Gal substrate buffer consists of 0.2 M Na2HPO4 (sodium phosphate dibasic)/ 0.1 M Citric Acid with the pH adjusted to 5.2 using HCl. Sodium Azide at 0.02% and Sodium Taurocholate (NaTC) at 1 mg/mL were added to this substrate buffer.
d.#The HMU-b-Gal stopping buffer consist of 0.5 M NaHCO3 (sodium bicarbonate) /0.5 M Na2CO3 (sodium carbonate). […] Triton X-100 at 0.25% was added.
4)#Preparation of HMU-b-Gal substrate tubes
Adding 18.6 mL of the HMUb-Gal substrate buffer to each 20-mL tube (2.20 mg of HMU-b-Gal) will reach a concentration of 0.2 mM. Vortex well the tube until the solution is fully homogenized (clear cloudy solution). […]
With `Cc1ccc(NC(=O)c2cccn(Cc3ccccc3C)c2=O)c(C)c1` the “activation” value was inactive: -15.2%.
`COc1cc(N)c(Cl)cc1C(=O)NC1CN2CCC1CC2` (stereo unspecified) was tested, and the “activation” value was inactive: -11.3%.
`Clc1ccc(C(c2ccc(Cl)cc2)C(Cl)(Cl)Cl)cc1` was tested, and the “activation” value was inactive: -9.92%.
`Fc1cc(Br)ccc1CBr` was tested, and the “activation” value was inactive: -11.2%.
For `NN=C(N)N`, the “activation” value was inactive: -7.41%.
For `COc1cc(OC)c(OC)cc1C=O`, the “activation” value was inactive: -8.18% [at 114 µM].
In the case of `Nc1c(Cl)c(Cl)c(Cl)c(Cl)c1Cl`, the “activation” value is reported as inactive: -4.67% [at 114 µM].
`NC(=O)OCCCc1ccccc1` was tested, and the “activation” value was inactive: -17.9%.
With `CC(C)c1nn2c(=O)cc(COC(=O)Cc3ccccc3)nc2s1` the “activation” value was inactive: -8.34%.
With `OC(c1ccccc1)(c1ccccc1)C1CCNCC1` the “activation” value was inactive: -17.5%.
In the case of `C[C@]12CCC(=O)C=C1CC[C@@H]1[C@@H]2CC[C@]2(C)C(=O)CC[C@@H]12`, the “activation” value is reported as inactive: -9.52%.
With `O=C1CN=C(c2ccccc2Cl)c2cc(Cl)ccc2N1Cc1cccc(Cl)c1` the “activation” value was inactive: -36.8%.
With `COc1ccc(-n2c(/C=C\c3ccccc3F)nc3ccccc3c2=O)cc1OC` the “activation” value was inactive: -14.8%.
For `CC(O)CN1CCN(CC(=O)[O-])CCN(CC(=O)[O-])CCN(CC(=O)[O-])CC1.[Gd+3]` (stereo unspecified), the “activation” value was inactive: -17%.
For `Nc1c(C(=O)Nc2ccc(Cl)c(C(F)(F)F)c2)sc2nc3c(cc12)N1CCC3CC1`, the “activation” value was inactive: -17.8%.
`COc1cccc(-n2c(/C=C/c3ccccc3O)nc3ccccc3c2=O)c1` was tested, and the “activation” value was inactive: -5.21%.
`CCCCC/C=C\C/C=C\C/C=C\C/C=C\CCCC(=O)NCC(=O)O` was tested, and the “activation” value was inactive: -14.7%.
For `O=C(CBr)Nc1ccc(Cl)cc1C(=O)c1ccccc1F`, the “activation” value was inactive: -6.82%.
With `O=C(N[C@H]1N=C(c2ccccc2F)c2cccc3c2N(CC3)C1=O)c1cc2ccccc2[nH]1` the “activation” value was inactive: -16.1%.
`CN1C2CCC(C)(C)C1CC(OC(=O)C(O)(c1cccs1)c1cccs1)C2` (stereo unspecified) was tested, and the “activation” value was inactive: -18.1%.
In the case of `CCCC(C)(COC(N)=O)COC(=O)NC(C)C` (stereo unspecified), the “activation” value is reported as inactive: -13.3%.
With `Cc1ccc(NC(=O)CN2C(=O)CN=C(c3ccccc3)c3ccccc32)cc1` the “activation” value was inactive: -20.6%.
For `CCCC1CCCCN1` (stereo unspecified), the “activation” value was inactive: -6.4%.
In the case of `CCCCCc1nc2ccccc2c(=O)n1-c1ccc(C)cc1`, the “activation” value is reported as inactive: -11%.
With `Cc1ccccc1-n1nc(C)c2c1NC(=O)CSC2c1ccc(N(C)C)cc1` (stereo unspecified) the “activation” value was inactive: -6.6%.
With `CN1CC[C@]23c4c5ccc(O)c4O[C@H]2[C@@H](O)CC[C@H]3[C@H]1C5` the “activation” value was inactive: -4.42% [at 114 µM].
In the case of `Cc1ccc(CN2C(=O)c3ccccc3Sc3ccc(C(=O)N4CCC5(CC4)OCCO5)cc32)cc1`, the “activation” value is reported as inactive: -0.133%.
With `CCN(Cc1ccc(Cl)nc1)/C(=C/[N+](=O)[O-])NC` the “activation” value was inactive: -15%.
`Cc1ccccc1Cn1cccc(C(=O)Nc2nc3ccccc3s2)c1=O` was tested, and the “activation” value was inactive: -26.1%.
`CO[C@]12CC[C@@]3(C[C@@H]1[C@](C)(O)C(C)(C)C)[C@@H]1Cc4ccc(O)c5c4[C@@]3(CCN1CC1CC1)[C@H]2O5` was tested, and the “activation” value was inactive: -6.73% [at 114 µM].
In the case of `CCC(=O)O[C@H]1CC[C@H]2[C@@H]3CCC4=CC(=O)CC[C@]4(C)[C@H]3CC[C@]12C`, the “activation” value is reported as inactive: -6.6%.
